In patent US20250002557A1 (SUZHOU LIGHT FERRY BIOMED, published 2025):
Where “and” joins values, the source holds several entries; their conditions need not be identical. Equal values may be shown once.

Legend:
VEGF-C [1] = biological target: T1, VEGF-C (UniProt P49767 112-227, limits assumed); experiment: ELISA, coated VEGF-C, anti-human Fc-HRP
T1 construct: Bought reagent
T1 sequence (looked up): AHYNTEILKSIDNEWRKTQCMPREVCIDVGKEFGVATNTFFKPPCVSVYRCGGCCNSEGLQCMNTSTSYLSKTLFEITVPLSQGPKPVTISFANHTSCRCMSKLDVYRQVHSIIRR

VEGF-A 121 [2] = biological target: T2, VEGF-A 121 (UniProt P15692-9 27-147); experiment: blocking ELISA, VEGF-A 121-His to coated VEGFR2-Fc
T2 construct: Bought reagent
T2 sequence (looked up): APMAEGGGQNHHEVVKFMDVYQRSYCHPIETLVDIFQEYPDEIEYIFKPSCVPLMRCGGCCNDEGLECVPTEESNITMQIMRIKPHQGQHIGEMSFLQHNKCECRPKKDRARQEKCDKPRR

VEGF-C [3] = biological target: T1, VEGF-C; experiment: blocking ELISA, VEGF-C-His to coated VEGFR3-Fc; row head prints uM, ng/ml row implies nM
VEGF-A165 [4] = biological target: T3, VEGF-A165 (UniProt P15692-4 27-191); experiment: blocking ELISA, VEGF-A 165-His to coated VEGFR2-Fc
T3 construct: Bought reagent
T3 sequence (looked up): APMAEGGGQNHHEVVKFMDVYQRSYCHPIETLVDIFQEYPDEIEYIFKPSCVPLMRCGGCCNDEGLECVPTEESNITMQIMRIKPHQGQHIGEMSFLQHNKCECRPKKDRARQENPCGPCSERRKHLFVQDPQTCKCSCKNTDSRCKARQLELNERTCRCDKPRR

PDGF-BB = biological target: T4, PDGF-BB (UniProt P01127 82-190); experiment: SPR, PDGF coupled to CM5 chip, trap in flow; row label printed PDGF-BR
T4 construct: Bought reagent
Description: (§1) Nevertheless, it was found in the preliminary detection experiments that PDGF family molecules (purchased from R&D Systems Inc.) were prone to produce non-specific binding in the chip, resulting in a pseudo-elevation in measured values, such that the detection could not be completed. Therefore, PDGF-AA, PDGF-AB, PDGF-BB and PDGF-CC molecules were separately loaded through a coupling reaction on a CM5 chip, followed by influx of the recombinant receptor molecules, thus effectively eliminating the impact of non-specific binding on affinity determination.

VEGF-C [5] = biological target: T1, VEGF-C; experiment: SPR Biacore T200, trap captured on Protein A chip, antigen in flow
[6] = biological target: T5, VEGF-A (isoform not given) (UniProt P15692-4 27-191, limits assumed); experiment: as above
T5 construct: May be the same reagent as VEGF-A165
T5 sequence (looked up): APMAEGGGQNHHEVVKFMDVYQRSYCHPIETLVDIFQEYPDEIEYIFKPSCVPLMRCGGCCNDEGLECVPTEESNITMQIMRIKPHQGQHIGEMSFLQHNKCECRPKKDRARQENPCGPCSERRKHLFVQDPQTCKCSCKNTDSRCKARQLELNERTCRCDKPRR

VEGF-D [7] = biological target: T6, VEGF-D (UniProt O43915 89-205, limits assumed); experiment: as above
T6 construct: Bought reagent
T6 sequence (looked up): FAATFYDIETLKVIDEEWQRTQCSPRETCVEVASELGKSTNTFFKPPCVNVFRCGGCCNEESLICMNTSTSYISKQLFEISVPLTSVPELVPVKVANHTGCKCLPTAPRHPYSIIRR

VEGF-D [8] = biological target: T6, VEGF-D; experiment: blocking ELISA, VEGF-D-His to coated VEGFR2-Fc; row head prints uM, ng/ml row implies nM
PDGF-AA = biological target: T7, PDGF-AA (UniProt P04085 87-211); experiment: SPR, PDGF coupled to CM5 chip, trap in flow
T7 construct: Bought reagent
Description: as §1

PDGF-AB = biological target: T8, PDGF-AB (UniProt P04085 87-211; P01127 82-190); experiment: SPR, PDGF coupled to CM5 chip, trap in flow
T8 construct: Bought reagent
Description: as §1

PDGF-CC = biological target: T9, PDGF-CC (UniProt Q9NRA1 235-345); experiment: SPR, PDGF coupled to CM5 chip, trap in flow
T9 construct: Bought reagent
Description: as §1

VEGF-D [9] = biological target: T6, VEGF-D; experiment: blocking ELISA, VEGF-D-His to coated VEGFR2-Fc
VEGF-A165 [10] = biological target: T3, VEGF-A165; experiment: ELISA, coated VEGF-A 165, anti-human Fc-HRP
VEGF-A165 [11] = biological target: T3, VEGF-A165; experiment: blocking ELISA, VEGF-A 165-His to coated VEGFR2-Fc; row head prints uM, ng/ml row implies nM
VEGF-D [12] = biological target: T6, VEGF-D; experiment: blocking ELISA, VEGF-D-His to coated VEGFR3-Fc
VEGF-A 121 [13] = biological target: T2, VEGF-A 121; experiment: ELISA, coated VEGF-A 121, anti-human Fc-HRP
VEGF-C [14] = biological target: T1, VEGF-C; experiment: blocking ELISA, VEGF-C-His to coated VEGFR2-Fc
VEGF-C [15] = biological target: T1, VEGF-C; experiment: blocking ELISA, VEGF-C-His to coated VEGFR3-Fc

Sequence of PDGF-BB (P01127 82-190): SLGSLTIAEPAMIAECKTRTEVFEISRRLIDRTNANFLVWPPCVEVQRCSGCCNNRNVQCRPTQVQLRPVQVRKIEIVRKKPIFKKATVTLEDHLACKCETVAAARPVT
Sequence of PDGF-AB (P01127 82-190, chain 2 of 2, other chains not shown): as the sequence (P01127 82-190) above
Sequence of PDGF-CC (Q9NRA1 235-345): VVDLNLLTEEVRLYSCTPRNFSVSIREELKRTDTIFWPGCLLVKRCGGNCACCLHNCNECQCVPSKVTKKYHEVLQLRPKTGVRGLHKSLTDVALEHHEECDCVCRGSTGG

B1: LFV-E Recombinant receptor molecule (Fc fusion)
chain: GLPSVSLDLPRLSIQKDILTIKANTTLQITCRGQRDLDWLWPNNQSGSEQRVEVTECSDGLFCKTLTIPKVIGNDTGAYKCFYRETDLASVIYVYVQDYRSPFIASVSDQHGVVYITENKNKTVVIPCLGSISNLNVSLCARYPEKRFVPDGNRISWDSKKGFTIPSYMISYAGMVFCEAKINDESYQSIMYIVVVVGYRIYDVVLSPSHGIELSVGEKLVLNCTARTELNVGIDFNWEYPSSKHQHKKLVNRDLKTQSGSEMKKFLSTLTIDGVTRSDQGLYTCAASSGLMTKKNSTFVRVHEKGPG[here human IgG1 Fc without letters]
EC50 (VEGF-C [1]): 0.71 nM and 0.0852 µg/mL
EC50 (VEGF-A 121 [2]): 1.28 µg/mL and 10.7 nM
EC50 (VEGF-C [3]): 1130 nM
EC50 (VEGF-A165 [4]): 1.11 µg/mL
Kd (PDGF-BB): 5.33 nM
koff (PDGF-BB): 0.000311 s⁻¹
kon (PDGF-BB): 58300 M⁻¹ s⁻¹
Kd (VEGF-C [5]): 0.0405 nM
koff (VEGF-C [5]): 3.8e-05 s⁻¹
kon (VEGF-C [5]): 938000 M⁻¹ s⁻¹
Kd [6]: 0.041 nM
koff [6]: 0.000123 s⁻¹
kon [6]: 2.99e+06 M⁻¹ s⁻¹
Kd (VEGF-D [7]): 14.8 nM
koff (VEGF-D [7]): 8.67e-05 s⁻¹
kon (VEGF-D [7]): 5860 M⁻¹ s⁻¹
EC50 (VEGF-D [8]): 420 nM
Kd (PDGF-AA): 0.958 nM
koff (PDGF-AA): 0.000134 s⁻¹
kon (PDGF-AA): 140000 M⁻¹ s⁻¹
Kd (PDGF-AB): 4.29 nM
koff (PDGF-AB): 0.000201 s⁻¹
kon (PDGF-AB): 46800 M⁻¹ s⁻¹
Kd (PDGF-CC): 46.1 nM
EC50 (VEGF-D [9]): 0.0505 µg/mL
EC50 (VEGF-A165 [10]): 0.0212 µg/mL and 0.177 nM
EC50 (VEGF-A165 [11]): 9260 nM
EC50 (VEGF-D [12]): 0.179 µg/mL and 1.5 nM
EC50 (VEGF-A 121 [13]): 0.601 nM and 0.0721 µg/mL
EC50 (VEGF-C [14]): 2.27 µg/mL and 19 nM
EC50 (VEGF-C [15]): 0.136 µg/mL
